Data taken from the supplement of paper PMC10126150.
Values marked as one replicate rest on one cluster of the flow cell; about a third of the high ones do not repeat.

Tested on: ATP
Test: switch fluorescence ratio, 500 uM ATP over buffer (Cy3 cluster intensity, sum of 5 cycles each) (fold (ratio)); higher = stronger signal-on switching upon ATP binding; sequences stand for … in TCGTCGGCAGCGTCAGATGTGTATAAGAGACAGTTTTTTTTTTTTTTTTTTTTTTTTT…TC
Conditions: aptamer strand: ATP DNA aptamer (quencher-CACCTGGGGGAGTATTGCGGAGGAAGG + anchor), 100 nM annealed; ATP concentration: 500 uM; one replicate
In short: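 Imaging in selection buffer was followed by imaging after 15 min with 500 uM ATP at 22 °C, for Cy3-labelled switching-strand clusters annealed to 100 nM quencher-labelled ATP aptamer on a modified Illumina MiSeq flow-cell. Five of these buffer/ATP cycles ran, separated by NaOH stripping and re-annealing. The fluorescence ratio per cluster is summed target-cycle over summed buffer-cycle Cy3 intensity, averaged per switch-domain sequence; clusters outside 100-1000 RFU were removed.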
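Also: ATP exposure 15 min at 22 °C before imaging.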

Sequence	switch fluorescence ratio
CTAAGCATGG	1.16
GGCATCTAAA	0.988
TGATCCAATT	0.993
CGCGACGCCG	1.05
TTAAGGTGAT	1.1
TAATCTCTAG	1.03
TTCCGATGGT	1.02
CACGCTAAT	1.39
TCCGAAGACA	2.75
ATCGTCGACC	1.01
CTATGGTGAC	1.06
CGGGGCCAGA	1.03
TTAGCACACC	1.2
AATGGGGCT	0.969
TTTGCTGTGG	1.03
CAGAAACTCT	1.09
CGGGTGCTAG	1.01
GAAATACGGC	1.17
CTTGTAGAGG	1.01
GAAACGTA	1.06
GTAGGGACTC	1.02
TTGGGAATTG	1.12
AGCAGATTCC	1.09
GGTGTTTGCC	0.978
GTAAATCGGA	0.951
CTTTGGCATA	1.15

Sequence	switch fluorescence ratio
TTAGGCTAGT	1.02
CGTGACATAA	1.02
ACAGACAAAA	1.09
GGCGCTAGGT	1
TGACCTACCG	1.06
TATTAGTTGA	0.995
AAGCACGTGC	0.908
TTCCATTTAG	1.02
CGGTACCGGT	1.05
TACCCGCCTA	1.17
GTATGTTGTA	1.02
TCCGATTGAC	1.7
ATTTAGATAG	0.984
AGTTGAATA	1.03
GGCGCGGACG	1.01
ATCGAGCATT	1.06
CGAGGGACAG	1.05
ATGTATGGC	1.05
GACTGGTGCG	1.02
TACGTTATCA	1.12
GGTGGCCTGA	0.951
CAAGTAAGGC	1.04
TCATGCAACC	1.18
TGTCGGCCGT	0.961
TGGGGACCAC	1.03
TTGCTGGTGC	0.959

Sequence	switch fluorescence ratio
ATGCACGATG	1
ATATTGTGAA	1.02
GTTAGACGCT	1.04
TATCCCGATG	1.01
AGGGGTCTCG	0.964
GGGTCAGGCA	0.988
CAATCTTTAT	1.04
CAATCGCTGG	1.03
TCCGAACACC	1.54
TATCAATAGA	0.997
CTTAGACAGA	0.938
GACCTCATAC	2.18
AAGTGAGTTG	0.998
TATCCCGATA	1
GGTGGGCGAG	1.08
GTATCAGGAC	1.1
CATACATTGG	0.948
TTTTCACTTA	1.05
TAGGGTCGTA	1
GCTACGATG	1.01
GCCTCTGATG	1.03
GTTAGAGCAG	1.01
TAATGAACCT	1.04
GGCTGCGGTG	0.978
AGTAATCGAG	0.996
CAACTTTGCC	1.02

Sequence	switch fluorescence ratio
TACTCGCTTA	1.14
CCTAGTGCTA	1.3
GGCGCCGACA	0.983
CGTGATGTAC	1.36
GGGAATCCTA	1.01
GAGCGCTAAA	1.04
TGAAGCATG	1.08
AAGGACACGT	1.02
AGCATATATC	2.69
AAGTTGTTAG	0.987
TGGTCAAAAC	1.05
GTATGCTGAA	0.986
TACGATACTT	1.5
TTGCGGTAGG	0.958
CTAACGTACT	1.8
CATGAGGACT	0.972
GATAGGGGCC	0.981
GCTCTGAACA	1.01
TATCGGAATC	1.34
TCGGTGGGCT	0.941
AACAGTAAG	1
TGATTGAAGA	0.931
ACGTCACCGT	1.52
ACGCTATTTG	1.19
CATCGGGTAT	1.02
TTACTTAA	1.01

Sequence	switch fluorescence ratio
GGCTTGAAGA	0.982
AGATTGGAAC	0.987
ATATATGTAT	1.01
ACACTTGTGC	0.953
AATTTAAAAT	0.962
TGGGCAAAAG	1.27
TCTCGGACGC	1.25
GCCCTATGCA	1.03
GGGGAGAATC	1
TATCTCCGTC	1.23
TATGTAAAAA	1.04
ACTGATTTGG	1.01
TGACATGGCA	0.961
TATACCGCGT	1.22
GCGATTAGGA	0.95
TTTAAGAGAC	1.08
TAGCGGCATC	0.991
GGTTCACGGA	0.976
TTTGTGCAAG	1.03
TTACAGGCAG	0.974
ATGTTCGC	1.03
ATCCATTTAT	1.01
TGCACTATTT	0.993
CAGGGACACA	1.1
CTCTCATCTT	1
GAATCGAGTG	0.952

Sequence	switch fluorescence ratio
TTTAATTAAA	0.995
AGAGAAAGCT	1.01
CTCCGGGCGT	1.61
ATACGTTAGT	1.07
AGATTGGAGC	1.04
CGAGTACTT	1.22
ACCAATTATG	1.04
TACTGACTGT	1.13
GTATTAGTAG	0.982
TGTAGTTACC	1.02
ACATGCGCTG	1.02
GCGGGTTTTG	0.972
TACTAAACAG	1.06
AGTGAATGAT	0.964
AGGAGGGTG	0.953
GAAAATCAAT	1.01
CCATAAGTCG	1.06
GATTCCGGTT	1.07
ACCAGGACGA	1.05
CAAATTAGA	0.979
GTGAGATTGA	1.02
AATGGGTAA	0.985
TCCAATTCGC	1.06
GGTGGGTCCT	0.987
TATGCGACTA	1
GGCTGAGCCA	1.01

Sequence	switch fluorescence ratio
AGTGCTGAGC	0.984
GGTTCTTGGA	0.998
GGGAATTTCA	1.02
TTCTAATGTG	0.993
GCGGTTCGT	1.02
TATGGAGTCT	1.02
CACTGAGTTT	0.984
CACAGGAATA	1.09
TCGGGCTGA	1.01
TGGTGCAATA	2.19
TGAATCTAGG	1.04
GGTTCACGTA	0.969
GAGATAAGTT	0.97
ACGTAGACGG	1.05
CAATGAGGAG	0.97
AGCGTCAAA	0.964
ATTAACTAAC	1.12
TGGTTTGAGT	1.02
GGATTTTTCG	1
CACTACGGG	1.02
AGGGACCCAT	1.07
CTGGTATCTA	1.04
CTGGAGAATT	1.09
ACGTGTAAGT	0.968
AGAATTGTTA	1.03
GACTGAGGG	0.991

Sequence	switch fluorescence ratio
GAGTCACGCC	1.05
ACAGCGGCCA	1.03
GACCTCCGTT	2.49
AGCCCCGACA	1.02
TCCTAGTATT	0.993
ACACTAAAGT	1.02
GGGGCAGTCG	1.01
CTAGCGTCAC	1.11
GTAGGGTAAT	0.948
TGCACCAGGG	1.7
GTTTAGGCTC	0.965
TAGTCGCTT	1.03
GGAGCGGGAA	1.12
GGTATTTCGA	0.995
CACCCTCCGG	1.14
ATCTAGGCA	1.02
GACATTTGTC	1.01
TGGTACTACT	1.04
ACTCGTTGAG	1
